# The other results are listed elsewhere or left out. Sequences were assembled here from the parent chain. Values near 0.05 are background.
# B1: TEV protease; numbered along this chain (parent)
# chain: MGESLFKGPRDYNPISSSICHLTNESDGHTTSLYGIGFGPFIITNKHLFRRNNGTLVVQSLHGVFKVKDTTTLQQHLVDGRDMIIIRMPKDFPPFPQKLKFREPQREERICLVTTNFQTKSMSSMVSDTSCTFPSGDGIFWKHWIQTKDGQCGSPLVSTRDGFIVGIHSASNFTNTNNYFTSVPKNFMELLTNQEAQQWVSGWRLNADSVLWGGHKVFMVKPEEPFQPVKEATQL
# Variants of: B1
# Assay: raw area under fraction-flipped curve 0-4 h after induction (AUC4h, not background-subtracted), DNA-recorder readout of cleavage of the substrate (dimensionless); higher = more cleavage of the substrate by the protease variant
# Conditions: temperature: 34 °C; time window: 0-4 h after rhamnose induction
# 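Note: Bxb1 expression induced with 0.2% (w/v) L-rhamnose at OD600 near 0.5, cultures sampled hourly, flipped fraction per protease–substrate barcode pair counted by paired-end Illumina sequencing.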
Variant,area with substrate ENLYFQC,area with substrate ENLYFQK,area with substrate ENLYFQL,area with substrate ENLYFQM,area with substrate ENLYFQN,area with substrate ENLYFQR,area with substrate ENLYFQS,area with substrate ENLYFQT,area with substrate ENLYFQV,area with substrate ENLYFQW,area with substrate ENLYFQD,area with substrate ENLYFQF,area with substrate ENLYFQG,area with substrate ENLYFQH,area with substrate ENLYFQI,area with substrate ENLYFQP,area with substrate ENLYFQQ,area with substrate ENLYFQY
MGESLFKGPRDYNPISSSICHLTNESDGHTTSLYGIGFGPFIITNKHLFRRNNGTLVVQSLHGVFKVKDTTTLQQHLVDGRDMIIIRMPKDFPPFPQKLKFREPQREERICLVTTNFQTKSMSSMVSDTSCTFPSGDGIFWKHWIQTKDGQCGSPLVSTRDGFIVGIHSASNFTNTNNYFTSVPKNFMELLTNQEAQQWVSGWRLIADSVLWGGHKVFMVKPEEPFQPVKEATQL [N206I],0.0903,0.0555,0.0522,0.0713,0.0637,0.0474,0.0979,0.0426,0.059,0.0625,,,,,,,,
MGESLFKGPRDYNPISSSICHLTNESDGHTTSLYGIGFGPFIITNKHLFRRNNGTLVVQSLHGVFKVKDTTTLQQHLVDGRDMIIIRMPKDFPPFPQKLKFREPQREERICLVTTNFQTKSMSSMVSDTSCTFPSGDGIFWKHWIQTKDGQCGSPLVSTRDGFIVGIHSASNFTNTNNYFTSVPKNFMELLTNQEAQQWVSGWRLNLDSVLWGGHKVFMVKPEEPFQPVKEATQL [A207L],0.112,,,,0.0604,0.0731,0.0877,,,,0.0736,0.0728,0.0697,0.0813,0.0689,0.0583,,
MGESLFKGPRDYNPISSSICHLTNESDGHTTSLYGIGFGPFIITNKHLFRRNNGTLVVQSLHGVFKVKDTTTLQQHLVDGRDMIIIRMPKDFPPFPQKLKFREPQREERICLVTTNFQTKSMSSMVSDTSCTFPSGDGIFWKHWIQTKDGQCGSPLVSTRDGFIVGIHSASNFTNTNNYFTSVPKNFMELLTNQEAQQWVSGWRLNADLVLWGGHKVFMVKPEEPFQPVKEATQL [S209L],0.11,0.0552,,,0.0856,0.0642,0.0913,,,,,,0.0906,0.0789,,0.0557,,
MGESLFKGPRDYNPISSSICHLTNESDGHTTSLYGIGFGPFIITNKHLFRRNNGTLVVQSLHGVFKVKDTTTLQQHLVDGRDMIIIRMPKDFPPFPQKLKFREPQREERICLVTTNFQTKSMSSMVSDTSCTFPSGDGIFWKHWIQTKDGQCGSPLVSTRDGFIVGIHSASNFTNTNNYFTSVPKNFMELLTNQEAQQWVSGWRLNADSFLWGGHKVFMVKPEEPFQPVKEATQL [V210F],0.125,0.0616,0.0564,,,0.057,0.0924,,,0.0605,0.0545,,,0.063,0.0535,,0.063,
MGESLFKGPRDYNPISSSICHLTNESDGHTTSLYGIGFGPFIITNKHLFRRNNGTLVVQSLHGVFKVKDTTTLQQHLVDGRDMIIIRMPKDFPPFPQKLKFREPQREERICLVTTNFQTKSMSSMVSDTSCTFPSGDGIFWKHWIQTKDGQCGSPLVSTRDGFIVGIHSASNFTNTNNYFTSVPKNFMELLTNQEAQQWVSGWRLNADSVFWGGHKVFMVKPEEPFQPVKEATQL [L211F],0.134,0.0674,0.064,0.0811,0.035,0.109,0.102,0.0741,0.0628,,0.0597,,,0.0794,0.0725,,,0.0796
MGESLFKGPRDYNPISSSICHLTNESDGHTTSLYGIGFGPFIITNKHLFRRNNGTLVVQSLHGVFKVKDTTTLQQHLVDGRDMIIIRMPKDFPPFPQKLKFREPQREERICLVTTNFQTKSMSSMVSDTSCTFPSGDGIFWKHWIQTKDGQCGSPLVSTRDGFIVGIHSASNFTNTNNYFTSVPKNFMELLTNQEAQQWVSGWRLNADSVLWQGHKVFMVKPEEPFQPVKEATQL [G213Q],0.0558,,0.059,,,0.0531,0.0613,,,0.061,,,,,0.0459,,,
MGESLFKGPRDYNPISSSICHLTNESDGHTTSLYGIGFGPFIITNKHLFRRNNGTLVVQSLHGVFKVKDTTTLQQHLVDGRDMIIIRMPKDFPPFPQKLKFREPQREERICLVTTNFQTKSMSSMVSDTSCTFPSGDGIFWKHWIQTKDGQCGSPLVSTRDGFIVGIHSASNFTNTNNYFTSVPKNFMELLTNQEAQQWVSGWRLNADSVLWGGHWVFMVKPEEPFQPVKEATQL [K216W],0.0901,0.0548,0.0555,,0.0594,0.0589,0.0835,,,,0.0546,0.0633,,0.046,,0.0553,,
MGESLFKGPRDYNPISSSICHLTNESDGHTTSLYGIGFGPFIITNKHLFRRNNGTLVVQSLHGVFKVKDTTTLQQHLVDGRDMIIIRMPKDFPPFPQKLKFREPQREERICLVTTNFQTKSMSSMVSDTSCTFPSGDGIFWKHWIQTKDGQCGSPLVSTRDGFIVGIHSASNFTNTNNYFTSVPKNFMELLTNQEAQQWVSGWRLNADSVLWGGHKGFMVKPEEPFQPVKEATQL [V217G],0.0531,0.0624,,0.0522,,0.0537,0.0683,,,,,,,0.0532,,,,0.0509
MGESLFKGPRDYNPISSSICHLTNESDGHTTSLYGIGFGPFIITNKHLFRRNNGTLVVQSLHGVFKVKDTTTLQQHLVDGRDMIIIRMPKDFPPFPQKLKFREPQREERICLVTTNFQTKSMSSMVSDTSCTFPSGDGIFWKHWIQTKDGQCGSPLVSTRDGFIVGIHSASNFTNTNNYFTSVPKNFMELLTNQEAQQWVSGWRLNADSVLWGGHKRFMVKPEEPFQPVKEATQL [V217R],0.0603,,0.0529,,,0.0538,0.0577,,,,0.0528,,,,0.0627,0.0544,,
MGESLFKGPRDYNPISSSICHLTNESDGHTTSLYGIGFGPFIITNKHLFRRNNGTLVVQSLHGVFKVKDTTTLQQHLVDGRDMIIIRMPKDFPPFPQKLKFREPQREERICLVTTNFQTKSMSSMVSDTSCTFPSGDGIFWKHWIQTKDGQCGSPLVSTRDGFIVGIHSASNFTNTNNYFTSVPKNFMELLTNQEAQQWVSGWRLNADSVLWGGHKVDMVKPEEPFQPVKEATQL [F218D],0.1,,,0.0749,,0.0511,0.095,0.0654,,0.0603,0.0605,0.0869,0.155,,0.0329,,,0.067
MGESLFKGPRDYNPISSSICHLTNESDGHTTSLYGIGFGPFIITNKHLFRRNNGTLVVQSLHGVFKVKDTTTLQQHLVDGRDMIIIRMPKDFPPFPQKLKFREPQREERICLVTTNFQTKSMSSMVSDTSCTFPSGDGIFWKHWIQTKDGQCGSPLVSTRDGFIVGIHSASNFTNTNNYFTSVPKNFMELLTNQEAQQWVSGWRLNADSVLWGGHKVFKVKPEEPFQPVKEATQL [M219K],0.0594,0.0635,0.0492,0.0637,0.0553,0.0479,0.0697,0.0835,,,,,0.0672,,0.0547,0.0662,,0.0574

# — the supplement of paper PMC12217912
